Data taken from the RNAGym collection of RNA variant scans (doi:10.7554/elife.90254).
The source gives no read counts; variants with many changes may rest on few reads.

B1: LINE1-mini (parent)
chain: GGCAGAGCUCAACACAGCGUGGCAAAGUGGCUGUGGCUAGACUGCC

Variants of: B1
Experiment: self-cleavage, relative activity (ratio to wild type); higher = more cleavage; in vitro, sequencing; the parent is a self-cleaving ribozyme

Variant | self-cleavage
A6U C18A C31U C42G | 0.02
A6U C18A C42U | 0.05
A6U C18A G21U U43C G44C C46G | 0.06
A6U C18A G22A A26C A41G | 1.45
A6U C18G A25U | 0.17
A6U C18G U34G G36C | 0.01
A6U C18U C46A | 0.42
A6U C18U G29A U38G | 0.02
A6U C23A A25G | 0.2
A6U C23A A25G G30U U34G G40U | 0.03
A6U C23A G33A | 0.43
A6U C23G C31U | 0.21
A6U C23G G36A | 0.19
A6U C23U A26U | 0.74
A6U C23U G29A | 0.59
A6U C23U U38A C46G | 0.17
A6U C31U A39U | 0.03
A6U C37G C45U | 0.03
A6U C42A C45U | 0.09
A6U G7A C8G G19U G27U | 0.04
A6U G7A C10A G22U G29C | 0.03
A6U G7C A11U | 0.04
A6U G7C C10A C46U | 0.01
A6U G7C C15A | 0.21

Variant | self-cleavage
A6U G7U A26G U28C C46A | 0.11
A6U G7U C8A C31G U43A | 0.28
A6U G7U C10A | 0.02
A6U G7U C10U | 0.01
A6U G7U C15G G17U C18G | 0.07
A6U G7U G22A G40U | 0.28
A6U G7U U9C U20C G35U | 0.05
A6U G17C G22U C23U U38A G40U C45A | 0.11
A6U G17C U28C A39C | 0.03
A6U G17C U38A C45U | 0.07
A6U G19A G22A A26U G29C | 0.29
A6U G19C G22A G27A G36A G44C | 0.06
A6U G19C G30C G35A | 0.11
A6U G19U A26C G30C | 0
A6U G19U U38C | 0.13
A6U G21A A24U U32C U38C | 0.37
A6U G21A A25U G27A | 0.28
A6U G21A A41G | 2.53
A6U G21A G29A | 0.71
A6U G21U G22C | 0.56
A6U G21U G30A | 0.78
A6U G21U G40C | 0.05
A6U G21U U34G | 0.51
A6U G22A U34G A39G G40U | 0.04

Variant | self-cleavage
A6U G22A U38A G44C | 0.06
A6U G22A U38C | 0.29
A6U G22C G30C G35A C42G | 0.1
A6U G22U C23A G27U G29U G33U | 0.12
A6U G22U C23G A39C U43A G44C | 0.01
A6U G22U C45U | 2.77
A6U G22U U28A G29C U32C | 1.47
A6U G27C U28C | 0.38
A6U G27U A41G | 0.48
A6U G29A G33A G35U C45U | 0.3
A6U G29A G44A | 1.38
A6U G30C A41G | 0.86
A6U G30C G36C | 0.21
A6U G30U A41U | 0.1
A6U G33A U43A | 0.06
A6U G35C C42A | 0.05
A6U G36A G44A | 0.04
A6U G36U G40C A41G | 0.37
A6U U9A A14G G33A A39C G40U | 0.12
A6U U9A C18U A39G A41U | 0.02
A6U U9A G17C | 0.11
A6U U9A G29U U32G G33A | 0.32
A6U U9C A24G | 0.05
A6U U9C G19A | 0.01

Variant | self-cleavage
A6U U9G A26G U32G | 0.04
A6U U20A C45G | 0.16
A6U U20A G21C U28A | 0.34
A6U U20A U32A | 0.05
A6U U20C A24U A25U | 0.72
A6U U20G G29A C31U U34C | 0.01
A6U U20G U34A G35C | 0.03
A6U U28A G44A | 1.04
A6U U28C G33C G40U | 0.09
A6U U32A C45U | 0.16
A6U U38C C46A | 0.05
G7A A11C A14U | 0.02
G7A A11C A26G C31G G35U C46U | 0.01
G7A A11C U20A G30C U32A C37A | 0
G7A A11G A12G | 0.02
G7A A11G C13U A16U U28G U38A | 0.06
G7A A11G C31U | 0.01
G7A A11G G19A C23G C31A | 0.01
G7A A11G G29C U38C G40C | 0.01
G7A A11U A12U G44A | 0.02
G7A A12C C13A | 0.04
G7A A12C C42A | 0
G7A A12C U34C | 0.01
G7A A12G C18U U32C | 0.05

Variant | self-cleavage
G7A A12G G17U U38A | 0.2
G7A A12U G27A | 0.08
G7A A14C A16G | 0.08
G7A A14C A39C | 0.04
G7A A14C G17U C23U C42U | 0.12
G7A A14G U38G | 0.03
G7A A14U C31U | 0.09
G7A A14U C42G C45A | 0.04
G7A A14U G17A C23U U38G A39U | 0.18
G7A A16C C31U | 0.03
G7A A16C G17A C18G G19C U20G G21A A24C | 0.02
G7A A16G A24U C37A | 0.31
G7A A16G C18U U20G C31G U32A | 0.02
G7A A16G C23G | 0.06
G7A A16G G19U G33C | 0.01
G7A A16G G30A G33U C37G | 0.01
G7A A24C A25G | 0.13
G7A A24C U32C A39C | 0
G7A A24G A41C | 0.09
G7A A25G G29A | 0.19
G7A A26C C37A A39U | 0.03
G7A A26G G27U | 0.08
G7A A26U G30U U32C | 0.1
G7A C8A C15G C31A | 0.09

Variant | self-cleavage
G7A C8A C37U | 0.17
G7A C8A G30C | 0.57
G7A C8G A11G A25G C37U | 0.02
G7A C8G C10U C23U G35U C46G | 0.11
G7A C8G C31U | 0.08
G7A C8G G29U A39G G44U | 0.03
G7A C8G G30A G36U | 0.05
G7A C8U A14G G17A G19U G21C G30A U43G C45A | 0.03
G7A C8U A16U U20C G30U C31G G36C | 0.08
G7A C8U C10A G22C | 0.04
G7A C8U G29U | 0.33
G7A C8U G40C | 0.15
G7A C8U U43C | 0.25
G7A C10A A16G | 0.02
G7A C10A C18U | 0
G7A C10A C37U A41C C45U | 0.01
G7A C10A C46G | 0.01
G7A C10A G17U A24U C31G | 0.03
G7A C10A G35C G36C | 0.01
G7A C10A U43A C46G | 0.02
G7A C10G A12U A14U G27C G44U | 0.04
G7A C10G A25U | 0.01
G7A C10G C37G | 0.02
G7A C10G G21A G33A U34C | 0.01

Variant | self-cleavage
G7A C10G G30C | 0.01
G7A C10G U28C | 0.01
G7A C10U A11C G35A | 0.04
G7A C10U A16U U28C A39U G40U | 0.03
G7A C10U C18U C23U | 0.05
G7A C10U C23U | 0.34
G7A C10U C37U C46U | 0.02
G7A C10U G40C | 0.04
G7A C13A A16U A26G G27C C31A | 0.06
G7A C13A A16U C18U U34G G44A | 0.06
G7A C13A C18A C23G C37G A39G | 0.17
G7A C13A C18A G27A | 0.13
G7A C13A G21A | 0.27
G7A C13A G22U | 0.27
G7A C13A G22U A41G | 0.28
G7A C13G A16C U38C A41G U43G C46A | 0.03
G7A C13G C23A A24G | 0.31
G7A C13G U32C | 0.26
G7A C13U G17U G21C C42U | 0.65
G7A C13U G19U U32A U43A | 0.08
G7A C13U U38A | 0.28
G7A C15A A16G G19A | 0.15
G7A C15G G30U G33U | 0.27
